Among all 310,000 compounds or so, about 14,000 (4.5%) showed an effect of 50% or more. The effect is printed as a negative number. The list shows a part of the results.

Data on 55 compounds can be found in paper PMC4336329 (PLoS ONE, 2015).
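Also: peak tail current of the secondary pulse compared with the same well before compound.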

The target of this assay is human ether-à-go-go-related gene (hERG) potassium channel (human, UniProt Q12809). As to the kind of experiment: primary screen, population patch clamp on CHO cells stably expressing hERG.
Chain of human ether-à-go-go-related gene (hERG) potassium channel (Q12809 whole entry, looked up): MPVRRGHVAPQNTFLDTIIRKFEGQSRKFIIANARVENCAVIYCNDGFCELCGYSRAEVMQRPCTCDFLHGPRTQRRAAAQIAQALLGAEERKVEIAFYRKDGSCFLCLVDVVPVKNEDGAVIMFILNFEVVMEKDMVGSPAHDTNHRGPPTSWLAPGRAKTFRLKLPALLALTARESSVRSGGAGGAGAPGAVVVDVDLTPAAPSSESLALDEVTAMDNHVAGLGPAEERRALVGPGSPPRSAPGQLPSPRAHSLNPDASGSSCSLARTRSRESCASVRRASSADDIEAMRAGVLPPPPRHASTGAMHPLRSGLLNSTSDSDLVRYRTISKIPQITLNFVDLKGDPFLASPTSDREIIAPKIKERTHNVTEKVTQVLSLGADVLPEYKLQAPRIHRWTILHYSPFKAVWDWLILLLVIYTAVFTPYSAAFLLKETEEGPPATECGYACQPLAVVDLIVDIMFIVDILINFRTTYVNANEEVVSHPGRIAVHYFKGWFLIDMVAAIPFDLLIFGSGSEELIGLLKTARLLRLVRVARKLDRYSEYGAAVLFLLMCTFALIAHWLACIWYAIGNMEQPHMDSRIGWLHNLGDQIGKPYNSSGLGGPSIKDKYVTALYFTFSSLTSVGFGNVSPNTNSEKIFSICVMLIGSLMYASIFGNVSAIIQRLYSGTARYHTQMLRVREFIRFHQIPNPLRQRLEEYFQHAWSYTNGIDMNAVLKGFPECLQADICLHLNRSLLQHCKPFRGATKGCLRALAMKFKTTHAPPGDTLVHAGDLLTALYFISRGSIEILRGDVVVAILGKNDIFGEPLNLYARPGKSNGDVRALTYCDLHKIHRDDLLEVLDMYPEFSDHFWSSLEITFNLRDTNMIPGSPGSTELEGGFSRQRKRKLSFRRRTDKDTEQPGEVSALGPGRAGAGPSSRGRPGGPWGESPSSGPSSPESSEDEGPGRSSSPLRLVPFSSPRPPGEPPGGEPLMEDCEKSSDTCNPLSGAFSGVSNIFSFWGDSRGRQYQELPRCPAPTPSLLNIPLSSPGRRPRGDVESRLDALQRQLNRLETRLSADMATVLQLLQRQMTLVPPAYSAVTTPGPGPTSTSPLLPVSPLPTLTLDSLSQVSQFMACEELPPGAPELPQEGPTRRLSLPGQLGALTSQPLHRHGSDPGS
For the compound `CN(C)c1ccc(/C=N/OC(=O)Nc2ccccc2Cl)cc1`, the “hERG current change (%, negative = inhibition) at 10uM” value was found to be 1.57%. Turning to `O=C(Cc1n[nH]c(=O)c2ccccc12)Nc1cccc(S(=O)(=O)N2CCCCCC2)c1`, the “hERG current change (%, negative = inhibition) at 10uM” value is on record as -57.8%. On to `CCOC(=O)c1cnc2ccc(OCC)cc2c1NCc1ccccc1OC`, for which the “hERG current change (%, negative = inhibition) at 10uM” value was 4.45%. As to `O=C(CSc1nnc(CNC(=O)c2ccco2)o1)c1ccccc1`, the “hERG current change (%, negative = inhibition) at 10uM” value was found to be 4.14%. With `COc1ccc(-c2csc(NC(=O)CSc3n[nH]c(C)n3)n2)cc1`, the “hERG current change (%, negative = inhibition) at 10uM” value is given as -4.9%.

With `COC(=O)CC1=NN(c2ccccc2)C(=O)C1`, the “hERG current change (%, negative = inhibition) at 10uM” value is 9.08%. The value for `Cc1ccc(S(=O)(=O)N2CCCN(C)CC2)cc1.Cl` was -4.52%; that for `COc1ccc(C2NN=C(c3c[nH]c4ccccc34)C2O)cc1` (stereo not shown) was 14.6%. `COc1cc(CNCCc2c[nH]c3ccccc23)ccc1OCc1ccc(F)cc1.Cl`: the “hERG current change (%, negative = inhibition) at 10uM” value was -48.4%. For the compound `C[C@@H](NC(=O)[C@@H]1Cc2ccccc2CN1C(=O)OC(C)(C)C)C(=O)NC1CCCCC1`, the “hERG current change (%, negative = inhibition) at 10uM” value came out at 4.59%. `Cc1cccc(NCCNc2cccc(C)c2)c1`: the “hERG current change (%, negative = inhibition) at 10uM” value was -0.0941%.

As for `CC(=O)Nc1ccc(C(=O)OCCCOC(=O)c2ccc(NC(C)=O)cc2)cc1`, the “hERG current change (%, negative = inhibition) at 10uM” value is reported as 5.65%. Regarding `CCCCOCCCn1c(N)c(C(=O)OC(C)COC)c2nc3ccccc3nc21` (stereo not shown), the “hERG current change (%, negative = inhibition) at 10uM” value is on record as -9.66%. For the compound `COc1cc(CN2CCC(C(=O)N3CCN(c4ccccc4F)CC3)CC2)cc(OC)c1O.O=C(O)C(=O)O`, the “hERG current change (%, negative = inhibition) at 10uM” value is reported as -3.74%.

`O=C(NCc1nc2ccccc2[nH]1)C1=C[C@@H](C2CCCCC2)C[C@@H](OCc2ccc(CO)cc2)O1`: the “hERG current change (%, negative = inhibition) at 10uM” value stood at 2.48%. Then `O=C1C2CCCCN2C(=O)N1CCN1CCN(c2ccc([N+](=O)[O-])cc2)CC1` (stereo not shown), with -71.5%. On to `COc1c(C(=O)Nc2ccc3[nH]c(=O)[nH]c3c2)cc2ccccc2c1Br`, for which the “hERG current change (%, negative = inhibition) at 10uM” value is listed as 16.6%. Take `CCCc1cc(=O)[nH]c(SCC(=O)N2CCc3cc(OC)c(OC)cc3C2)n1`: the “hERG current change (%, negative = inhibition) at 10uM” value is on record as -1.31%. For `CC(C)c1nnc(NC(=O)CCC(=O)NCc2ccccc2Cl)s1`, the “hERG current change (%, negative = inhibition) at 10uM” value is recorded as 11.2%. As to `CN(C)CCCN(C(=O)c1ccc(S(=O)(=O)N2CCCC2)cc1)c1nc2c(F)cc(F)cc2s1.Cl`, the “hERG current change (%, negative = inhibition) at 10uM” value is -44.3%. `COc1ccc(NC2CC(=O)N(CCc3ccccc3)C2=O)cc1` (stereo not shown): the “hERG current change (%, negative = inhibition) at 10uM” value is recorded as -1.2%. Take `CSc1ccc(CCNC(=O)c2cc(-c3ccccc3)c(N3CCOCC3)s2)cc1`: the “hERG current change (%, negative = inhibition) at 10uM” value is listed as -1.02%. In the case of `CCn1c(C)cc(/C=C2/NC(=O)N(CC(=O)Nc3cccc(C)c3)C2=O)c1C`, the “hERG current change (%, negative = inhibition) at 10uM” value is recorded as -6.29%. The value for `COCCn1cc(C(=O)NCc2cccs2)c2c3ccccc3n(C)c2c1=O` was -10.5%. Then `CCN(CC(=O)Nc1ccc(NC(C)=O)cc1)C(=O)c1cccc2ccccc12`, with 1.23%. In the case of `CC(Sc1nnnn1-c1ccc(Cl)cc1)C(=O)NCC(=O)Nc1ccc(F)c(F)c1F` (stereo not shown), the “hERG current change (%, negative = inhibition) at 10uM” value stood at 9.14%. As for `CCOc1ccc(NC(=O)/C(C#N)=C/c2ccc(N3CCCC3)c(C)c2)cc1`, the “hERG current change (%, negative = inhibition) at 10uM” value came out at 4.16%. As to `CC(=Nc1ccc(Br)cc1)c1sc2ccccc2c1O`, the “hERG current change (%, negative = inhibition) at 10uM” value was determined as 5.43%.

Turning to `COc1ccc(/C=N/NC(=O)c2ccncc2)cc1CSc1nc2ccccc2s1`, the “hERG current change (%, negative = inhibition) at 10uM” value is 16.3%.

`Cc1[nH]n(-c2ccccc2)c(=O)c1C(=O)c1ccc(Cl)cc1`: the “hERG current change (%, negative = inhibition) at 10uM” value stood at 14.8%. The value for `C[C@]12CC[C@H](O)C[C@H]1CC[C@@H]1C2CC[C@]2(C)[C@@H](C3=CC(=O)OC3)[C@@H](O)C[C@]12O` (stereo partly shown) was 21.1%; that for `CC(=O)Cc1nsc(NC(=O)c2cc(-c3ccc(Cl)c(Cl)c3)oc2C)n1` was 10.7%. Then `Cc1nc2c(sc(=S)n2Cc2ccco2)c(=O)n1CC(=O)Nc1ccccc1Cl`, with 5.07%; and `CC(=O)NC(Cc1ccccc1)C(=O)OCC(=O)c1ccccc1` (stereo not shown), with 3.64%; and `O=C(NC1CC1)C1=C[C@@H](c2ccccc2)C[C@@H](OCc2ccc(CO)cc2)O1`, with -38.3%. Turning to `CC1=C(C#N)C(c2ccc(O)cc2)C(C#N)=C(C)N1`, the “hERG current change (%, negative = inhibition) at 10uM” value was 13%. With `Cc1cc(NC(=O)CSc2nnc(-c3ccco3)n2C)no1`, the “hERG current change (%, negative = inhibition) at 10uM” value was determined as 0.163%. In the case of `O=S(=O)(Nc1c(F)cccc1F)c1ccc(Cl)nc1`, the “hERG current change (%, negative = inhibition) at 10uM” value is 50.8%.

`CCOC(=O)Cc1nnc(Nc2cc(C)ccc2C)c2ccccc12`: the “hERG current change (%, negative = inhibition) at 10uM” value is -19.1%.

Take `COc1ccc(CNc2nc3c(c(=O)n(Cc4ccc(Cl)cc4)c(=O)n3C)n2C)cc1`: the “hERG current change (%, negative = inhibition) at 10uM” value is on record as 11%.

As to `O=C(Cc1ccccc1)NN1C(=O)/C(=C/c2ccccc2C(=O)O)SC1=S`, the “hERG current change (%, negative = inhibition) at 10uM” value came to 12.4%.

On to `COc1cc(C2C(C(=O)c3ccco3)=C(O)C(=O)N2CC2CCCO2)ccc1O` (stereo not shown), for which the “hERG current change (%, negative = inhibition) at 10uM” value is recorded as 2.25%. With `CC(C)[C@H](NC(=O)c1ccccc1)C(=O)OCC(=O)NCCc1ccc(F)cc1`, the “hERG current change (%, negative = inhibition) at 10uM” value is -10.9%. For the compound `Nc1nc(-c2ccc(Br)cc2)cc(C(F)(F)F)n1`, the “hERG current change (%, negative = inhibition) at 10uM” value turned out to be 11.4%. On to `CC(C)C(OC(=O)c1nsc(Cl)c1Cl)C(=O)NC(C)(C)C` (stereo not shown), for which the “hERG current change (%, negative = inhibition) at 10uM” value is on record as 13.3%. Regarding `CCn1nnnc1SCC(=O)Nc1nnc(C(C)C)s1`, the “hERG current change (%, negative = inhibition) at 10uM” value is listed as 13.7%. Consider `O=C(COc1ccc2c3c(c(=O)oc2c1)CCCC3)NCc1cccnc1`, for which the “hERG current change (%, negative = inhibition) at 10uM” value was -0.966%. Regarding `c1ccc(-c2csc(-c3cccnc3)n2)cc1`, the “hERG current change (%, negative = inhibition) at 10uM” value is -6.12%. Consider `Clc1ccccc1Nc1nc(-c2ccncc2)nc2ccccc12`, for which the “hERG current change (%, negative = inhibition) at 10uM” value is listed as 7.5%. The value for `COc1ccc(Cn2ccnc2SCC(=O)NC2CCCCC2)cc1` was -2.96%; that for `CC1(C)N=C(C(=O)c2ccccc2)N(O)C1(C)O` (stereo not shown) was 0.936%; that for `Cc1[nH]c(=O)[nH]c(=O)c1N(C)C` was 5.74%. Then `COc1ccc(CN2CC(C(=O)NCC3CCCO3)CC2=O)cc1` (stereo not shown), with -7.61%; and `C/C(CC(=O)Nc1cc(C)ccn1)=N\NC(=O)c1ccc(C)cc1`, with -15.4%. Consider `COc1cc(/C=C/CO)cc(OC)c1OC/C=C(\C)CCC=C(C)C`, for which the “hERG current change (%, negative = inhibition) at 10uM” value amounted to 1.34%.
